# According to the supplement of paper PMC11417369:
# The list shows a part of the results.
# Test system: PfHDP1 homeodomain (GST-tagged)
# Test: gcPBM binding intensity (ln(normalized median fluorescence intensity)); higher = stronger DNA binding
# Outline: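 An Agilent 4 × 180k array carrying primer-extended double-stranded 36-bp intergenic genomic probes and negative controls received GST-tagged P. falciparum DNA-binding domains expressed in E. coli, about 25 μg on average, for 1 h. The binding buffer contained 1× PBS, 1% milk, 0.2 mg/ml BSA, 0.5% salmon testes DNA and 0.03% Triton X-100. Binding intensity is the top Masliner-normalised natural-log median intensity across replicate spots of either probe orientation, read after Alexa488 anti-GST antibody staining and a 488 nm scan.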
row,Sequence,gcPBM binding intensity (ln)
1,TATATATATATTATATGTACACAAGGAAATATGCAT [XGTACX_site5637],8.32
2,TATGTATAATTATTTTGTACTTATTAAATTTTTTTT [XGTACX_site5413],5.9
3,TTCAAAATAAAAAATTCACACACATATATATATATA [CACACA_site8653],9.22
4,ATCTATGAAAAAGGTACATGCAATAAAGAAACATAT [TGCATGCA_site805],7.34
5,TAATAATAGAGACACACACACATAGACATATAAATA [CACACA_site6729],6.87
6,TTATAATCAATGAATACACACATATATTTCATTAAT [CACACA_site5909],6.41
7,TTATACTATTTTTATACATGCATTTCTATATATTTT [TGCATGCA_site316],6.6
8,ACATGTAATATAATGTGTACATATACAAAGGTATAT [XGTACX_site4145],6.6
9,AGATGAGAAATATATACACACAATAATACCTATTTA [CACACA_site876],6.45
10,ATAAAGTATATTATATGTACATATATATATTATATA [XGTACX_site1345],6.43
11,GAGCCCAAAAAATTAGGTACGTATAAAGAGGTATTT [XGTACX_site5348],6.26
12,TTTGTGTTGTATTTTTGTACATAAAATAAACTTAAA [XGTACX_site4637],6.65
13,TTTCTTTTTTCTTCAGTGCATTAAAATTAACAAAAG,9.58
14,TCTTTTTTCATATTTTCACACATGTCTTTATATTTA [CACACA_site6025],7.62
15,AGGAAAATTTTATTTGCACACATTATTACGTCTAAA [CACACA_site2337],10.4
16,CATATATATATTGGAAGTACATATTTAATATTCATT [XGTACX_site3545],6.4
17,ATATAAACATATAATAGTACACTTCGATAATTTTAT [XGTACX_site3321],6.42
18,ATTTAACATATAAAATGTACATATATATATATATTT [XGTACX_site2525],6.51
19,GTACCATCAAAATAAATATATATATATATATATTTT [GTGCAC_negctrl_site646],6.61
20,TCATAAATATAAAGTGTGCACTTGAATAATATGTAT,9.34
21,AAAATAAAAAAAATAAATAAAAAAAATAATAATAAA [CACACA_negctrl_site563],6.29
22,TAAATAAATCTGTGCTTGCACTTTTTTTGTTATTTT,6.44
23,CAAACCCACCAACACACACACACAAAAATGATTAAA [CACACA_site2432],6.73

row,Sequence,gcPBM binding intensity (ln)
1,ATATATTTTGATTGCACACAGAATTTAAATCATGAT [CACACA_site2343],9.3
2,GAAGATATATAATAATTCATAGTTTTTTAATTTAAA [TGCATGCA_negctrl_site295],5.85
3,TACTTTTTTATTTGGTGTACAAATAAAATCATAATG [XGTACX_site1802],6.66
4,CTCTTTTCTTATAATACACACAGTAATATTTATATA [CACACA_site6824],7.16
5,AATAAAAAAAATTTCTGTACATATATTTATTATATA [XGTACX_site1883],6.12
6,ATTCCTTTATTATCACGTACTTATAAAATATAGTAT [XGTACX_site7498],7.3
7,TTTTAATAAATCATTTTCCTAATATTTATATTTGCT [TGCATGCA_negctrl_site232],5.98
8,TTTTTCATTTAGCTTTTACACACTATATATTATTGA [CACACA_site7888],6.87
9,TTATATATATATTGTTCACACATAATATAAATATTT [CACACA_site5835],6.39
10,ATAAACAGATAAAAGGGTACACACATATATACATGT [XGTACX_site452],6.67
11,TTAAATAAAATAAAAACATGCACACTTTATTTTTTT [TGCATGCA_site719],8.13
12,ATTATTTTTTTTGAAGTGCAATATTATTTTTAATCA,8.94
13,ATGTGGATTTTATAATGTACATATGATATTATTTTG [XGTACX_site7930],6.35
14,ATGGTTATATTTGAAGTGCAAAAAAAAATATATGTA,8.81
15,TATACTACCCAGAGCTGTACAAAATAATAATAAGTT [XGTACX_site1045],6.69
16,CAATTCAATATATATACACACACACTATTAATAATT [CACACA_site9256],6.89
17,GTTAAGTGGATATATACACACATATGCAATACATGA [CACACA_site7427],7.36
18,TATTTAATTTTTAAATGTACATATAAAATAATATAT [XGTACX_site2422],6.26
19,AAAAAAAATTTCTTCTGTACGCATAAATTTTTATTA [XGTACX_site8721],6.25
20,TTTTTCAGAAAAGAAACACACATATATATATTTATA [CACACA_site2372],6.43
21,CATATAAAATAATTCACACAAATATACAAATACCCA [CACACA_site5340],6.83
22,CCTATCCAGACATATACACACATATCTATTTATATA [CACACA_site5001],7.11
